The results in this text go back to paper PMC5700166.

The entries are a selection whose mix differs from that of the whole data set. The list includes weakly bound sequences.

This test concerns the target T1, GST-Nv-NF-kB (Cys allele) (UniProt E5G601).
T1 sequence: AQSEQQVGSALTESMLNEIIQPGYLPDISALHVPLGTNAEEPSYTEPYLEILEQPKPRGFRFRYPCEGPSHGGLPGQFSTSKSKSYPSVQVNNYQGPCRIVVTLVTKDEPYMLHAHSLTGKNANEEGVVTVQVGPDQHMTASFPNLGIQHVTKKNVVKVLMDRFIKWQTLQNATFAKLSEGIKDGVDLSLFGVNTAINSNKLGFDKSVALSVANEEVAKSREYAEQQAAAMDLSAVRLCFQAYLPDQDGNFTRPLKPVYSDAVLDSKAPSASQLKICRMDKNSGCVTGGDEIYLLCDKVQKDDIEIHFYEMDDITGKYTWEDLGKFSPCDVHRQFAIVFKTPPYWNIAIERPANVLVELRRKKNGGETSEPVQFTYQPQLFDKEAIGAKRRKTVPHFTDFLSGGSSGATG
Description: protein-binding microarray (PBM). As to conditions: PBM: ~300 nM protein, 6 mM HEPES pH 7.8, 80 mM KCl, 0.5 mM EDTA, 0.5 mM EGTA, 6% glycerol, 35 ng/ul poly-dIdC, 1% milk, 1 h, room temperature; Ap Aiptasia and Nv Nematostella (sea anemones) / Co Capsaspora / Aq Amphimedon (sponge) / Dm Drosophila / Hu human; RHD is the Rel homology domain; high values mean tight binding; most listed sequences are background and not binding sites; double strand, one strand shown.
On to “CCGATTAACATCACGTATTTCCCTGATGTTAATCGGGTCTTGATTCGCTTGACGCTGCTG”, for which the binding signal is 4.03 z-score.

The sequence “CCGATTAACATCATGGGGAGGAATGATGTTAATCGGGTCTTGATTCGCTTGACGCTGCTG” showed a binding signal of 3.68 z-score.

“CCGATTAACATCAGGGGAAGTACTGATGTTAATCGGGTCTTGATTCGCTTGACGCTGCTG”: the binding signal is 8.22 z-score.

“CCGATTAACATCACCCTTGGGAATGATGTTAATCGGGTCTTGATTCGCTTGACGCTGCTG” registered a binding signal of 0.985 z-score.

Take “CCGATTAACATCAGGAATATCCCTGATGTTAATCGGGTCTTGATTCGCTTGACGCTGCTG”: the binding signal came out at 3.66 z-score.

In turn, “CCGATTAACATCAACGTATTCCCTGATGTTAATCGGGTCTTGATTCGCTTGACGCTGCTG” yielded a binding signal of 2.78 z-score.

In turn, “CCGATTAACATCAGGGAAGTACCTGATGTTAATCGGGTCTTGATTCGCTTGACGCTGCTG” displayed a binding signal of 7.36 z-score.

As to “CCGATTAACATCAAGGGAAAAATTGATGTTAATCGGGTCTTGATTCGCTTGACGCTGCTG”, the binding signal came to 6.35 z-score.

“CCGATTAACATCAGGGAATTGGATGATGTTAATCGGGTCTTGATTCGCTTGACGCTGCTG” yielded a binding signal of 3.52 z-score.

For the sequence “CCGATTAACATCAGCACGGGAAATGATGTTAATCGGGTCTTGATTCGCTTGACGCTGCTG”, the binding signal was found to be 2.98 z-score.

Sequence “CCGATTAACATCACGGATTTCCCTGATGTTAATCGGGTCTTGATTCGCTTGACGCTGCTG” gave a binding signal of 5.2 z-score.

“CCGATTAACATCAGGGACCCCCCTGATGTTAATCGGGTCTTGATTCGCTTGACGCTGCTG” showed a binding signal of 5.59 z-score.
